Some of the results follow. Antibody binding of pooled human sera (four to six donors per pool; dilution not stated) to peptides of the Trypanosoma cruzi antigen TSSA on microarrays. Quantile-normalised fluorescence in arbitrary units, mean of duplicate arrays; higher = more binding. No active / inactive call. The uninfected pools are read here as the healthy donors of the same country. The strongest signals lie near the top of the scale (about 60,000).
Assays:
Test in all cases: antibody binding signal (normalised fluorescence) (arbitrary fluorescence units); higher = stronger serum antibody binding to peptide
[1] = tested on: pooled sera of chronic Chagas disease patients, Argentina
Description: (§1)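 Microarray of 15-residue peptides over residues 30-55 of Trypanosoma cruzi TSSAII, each with 1 to 10 substitutions at naturally variable positions, probed with one serum pool per country.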

[2] = tested on: pooled sera of chronic Chagas disease patients, Bolivia
Description: as §1

[3] = tested on: pooled sera of chronic Chagas disease patients, Brazil
Description: as §1

[4] = tested on: pooled sera of chronic Chagas disease patients, Colombia
Description: as §1

[5] = tested on: pooled sera of chronic Chagas disease patients, Mexico
Description: as §1

[6] = tested on: pooled sera of chronic Chagas disease patients, USA
Description: as §1

[7] = tested on: pooled sera of uninfected people, Argentina
Description: as §1

[8] = tested on: pooled sera of uninfected people, Bolivia
Description: as §1

[9] = tested on: pooled sera of uninfected people, Brazil
Description: as §1

[10] = tested on: pooled sera of uninfected people, Colombia
Description: as §1

[11] = tested on: pooled sera of uninfected people, Mexico
Description: as §1

[12] = tested on: pooled sera of uninfected people, USA
Description: as §1

Row | Sequence | antibody binding signal [1] | antibody binding signal [2] | antibody binding signal [3] | antibody binding signal [4] | antibody binding signal [5] | antibody binding signal [6] | antibody binding signal [7] | antibody binding signal [8] | antibody binding signal [9] | antibody binding signal [10] | antibody binding signal [11] | antibody binding signal [12]
1 | GKENKPAAGGTPSPP | 698 | 257 | 2280 | 1640 | 2020 | 5530 | 792 | 359 | 268 | 233 | 158 | 118
2 | GKENKPATGEAPSPP | 48900 | 33000 | 47500 | 16500 | 16900 | 44700 | 1510 | 775 | 252 | 243 | 329 | 152
3 | PPSGKDKKAATGGTP | 1150 | 314 | 528 | 954 | 29700 | 1370 | 234 | 247 | 191 | 366 | 81.8 | 105
4 | GTDNKAAAGETPSPP | 245 | 163 | 31300 | 211 | 361 | 1130 | 146 | 649 | 1190 | 110 | 219 | 589
5 | KENKTAAGEAPSPPG | 322 | 272 | 3130 | 805 | 279 | 7130 | 232 | 119 | 149 | 144 | 123 | 182
6 | PSGKDNKAAAGEAPS | 4230 | 1250 | 7420 | 9190 | 5820 | 10600 | 378 | 401 | 150 | 158 | 95.2 | 141
7 | TENKAATGEAPSPPG | 31400 | 41100 | 38500 | 249 | 207 | 25400 | 170 | 134 | 166 | 116 | 97.6 | 135
8 | TDKKTATGEAPSQPG | 17500 | 28400 | 39200 | 232 | 1240 | 21200 | 240 | 104 | 498 | 98.5 | 184 | 127
9 | GKDNKPAAGETPSQP | 1460 | 1360 | 35800 | 1300 | 1880 | 3810 | 411 | 850 | 161 | 291 | 352 | 103
10 | GTDKKAAAGETPSQS | 254 | 299 | 2480 | 2430 | 378 | 1230 | 106 | 390 | 115 | 584 | 287 | 107
11 | SGKDKKAAAGGAPSQ | 428 | 166 | 315 | 3350 | 888 | 984 | 123 | 78.5 | 92.2 | 136 | 65.9 | 92.1
12 | PPSGTENKAAAGGAP | 48800 | 41700 | 47400 | 1100 | 7030 | 11000 | 2070 | 982 | 334 | 829 | 268 | 1180
